Among the data in article PMC5836133 are binding signal values, retold here.

The other results are listed elsewhere or left out. At the low end of the ranking the order means little.

For the assay, the system named is T1, GST-NbGlk1(82-244).
T1 sequence: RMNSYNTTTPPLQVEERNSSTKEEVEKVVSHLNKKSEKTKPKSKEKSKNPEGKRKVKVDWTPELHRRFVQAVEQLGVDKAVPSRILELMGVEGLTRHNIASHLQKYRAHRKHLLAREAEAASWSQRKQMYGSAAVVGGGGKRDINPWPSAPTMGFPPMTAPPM
In words: protein-binding microarray.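 Also: rank-based score ranging −0.5 to +0.5 with E above 0.45 taken as significant binding.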 As to conditions: NbGlk1 is a Golden2-like transcription factor of Nicotiana benthamiana; high values mean tight binding; most listed sequences are background and not binding sites; double strand, one strand shown.
AGGGGCAA came in with a binding signal of -0.137 E-score.
The result for CAGCGCAA reads 0.175 E-score; that for ACTTCTCG, 0.0482 E-score.
Turning to ACTCTCCA, the binding signal is -0.0331 E-score.
ATACACGG came in with a binding signal of 0.0444 E-score.
In the case of ATAGTGAG, the binding signal is 0.0895 E-score.
In the case of AGGGCGAC, the binding signal is -0.182 E-score.
For AGACGGAT, the binding signal was 0.161 E-score.
As for ACCCACAC, the binding signal is -0.0662 E-score.
The sequence AACTAATG yielded a binding signal of -0.0154 E-score.
AGGGGACA had a binding signal of -0.214 E-score.
For the sequence ACGACTGC, the binding signal is -0.112 E-score.
The sequence AGGCTTGG registered a binding signal of -0.265 E-score.
Sequence ACTCGCCC showed a binding signal of -0.146 E-score.
The result for CAAAAGTG reads -0.115 E-score.
The result for AATAAAGT reads 0.0436 E-score; that for ACAGAAGA, 0.131 E-score; that for CACATTAC, 0.0958 E-score.
The sequence AACGTCTA returned a binding signal of -0.143 E-score.
The result for CACTGAGA reads 0.104 E-score; that for ACGCCCGA, -0.0754 E-score; that for ACCTAGTC, -0.178 E-score.
The result for AATTTAAA reads 0.226 E-score; that for ACGTCCAT, -0.0411 E-score.
The result for ACTTGCCA reads -0.0718 E-score; that for ATGGCGCG, -0.132 E-score; that for ACCACACA, -0.0288 E-score.
Consider ATCCTTAC, for which the binding signal came out at 0.266 E-score.
The result for ACATATCC reads 0.214 E-score; that for ATTCTGAA, 0.187 E-score.
Take AACGACAG: the binding signal was -0.0685 E-score.
The result for ACCCCGTC reads -0.233 E-score.
Sequence ACCGGGTC had a binding signal of -0.243 E-score.
Regarding AATGGCTA, the binding signal is -0.0762 E-score.
Sequence ATACGGAT came in with a binding signal of 0.331 E-score.
The result for AAACTTCC reads -0.174 E-score; that for AATAAGGT, -0.113 E-score; that for ATTCAGTA, 0.141 E-score.
The result for AACACGGG reads -0.0136 E-score.
The result for CAAGGGGG reads -0.107 E-score.
In the case of ACTATGAA, the binding signal amounted to 0.0289 E-score.
The result for ACAAAGAA reads 0.101 E-score; that for CAAATTCA, 0.203 E-score.
The result for AAATCAGT reads 0.272 E-score; that for ATCCGTCA, 0.198 E-score; that for ACCGTTGC, -0.125 E-score.
The sequence CACACACG showed a binding signal of -0.191 E-score.
The result for CAAAGTCG reads -0.125 E-score; that for ACATATCA, 0.216 E-score; that for ACTTTGAT, 0.036 E-score.
The result for ATAAAGTG reads -0.0588 E-score; that for AGTACAGA, -0.00339 E-score; that for AGAGGGGA, -0.0871 E-score.
The result for AGAGAGTC reads -0.182 E-score; that for AGCGGGGG, -0.279 E-score.
In the case of ACTTGATG, the binding signal is -0.174 E-score.
As to AGAAGATG, the binding signal was -0.0518 E-score.
The result for ACAAGAAA reads 0.00851 E-score; that for AGGTCCGA, -0.0931 E-score; that for AAGGACGA, -0.0926 E-score.
The result for AATGATGC reads -0.084 E-score; that for ACAGTGAT, 0.0821 E-score; that for AGACTACC, -0.143 E-score.
AGCACCCC gave a binding signal of -0.156 E-score.
Sequence CAGCACTC registered a binding signal of -0.0712 E-score.
The result for AATAGGAC reads -0.12 E-score.
The sequence ACTGACCT returned a binding signal of -0.221 E-score.
The sequence AGTTTTAC gave a binding signal of 0.017 E-score.
The sequence AACGGAGT came in with a binding signal of -0.114 E-score.
Turning to AAGCTTTC, the binding signal is -0.088 E-score.
The result for AGCTTAGA reads -0.0641 E-score; that for CAACGATA, 0.106 E-score; that for AGGGGAGA, 0.0253 E-score.
On to AGATCTTC, for which the binding signal stood at 0.428 E-score.
With AGTCTCGC, the binding signal was -0.146 E-score.
AGTTGCAC: the binding signal was -0.131 E-score.
AGTTAACA registered a binding signal of -0.00467 E-score.
The result for AGGATGAT reads 0.0685 E-score.
The result for AGTTGATC reads -0.104 E-score; that for ATTTTTGC, 0.0673 E-score; that for CAGACCTA, -0.137 E-score.
The result for CACATTTA reads -0.0183 E-score; that for ATCAAGCA, 0.0915 E-score; that for AACTGAGA, -0.0451 E-score.
CACAAGAG had a binding signal of 0.0235 E-score.
The result for ATCTTGCC reads 0.261 E-score.
The result for ATTTATTA reads 0.249 E-score; that for AACCGGAG, -0.149 E-score.
The result for AGTAAATC reads 0.241 E-score; that for ACAGACAC, -0.0797 E-score; that for ATTCGATA, 0.239 E-score.
Sequence ACGATAAT returned a binding signal of 0.146 E-score.
In turn, ACTACGTA returned a binding signal of -0.102 E-score.
For ATCACAGA, the binding signal amounted to 0.217 E-score.
ACCTCTAA gave a binding signal of -0.174 E-score.
The result for CAGAGCAC reads -0.176 E-score.
The result for ATGCTCCC reads -0.213 E-score; that for AGGCATGC, -0.305 E-score.
The result for ATGTATCA reads 0.164 E-score.
On to ATTAACGA, for which the binding signal came out at 0.0874 E-score.
Sequence ATCCCGAT gave a binding signal of 0.294 E-score.
The result for ACCGGGCG reads -0.312 E-score; that for AATTCCGG, 0.0693 E-score.
The result for ACTTTATG reads -0.000381 E-score; that for CAACCTGA, 0.0173 E-score.
The result for ACCTTCAG reads -0.203 E-score; that for ATGACTAA, 0.0349 E-score.
AGTAAAAT had a binding signal of 0.292 E-score.
The result for ACCCCAGA reads -0.189 E-score; that for AACGTACA, -0.0481 E-score; that for CAATGCTG, -0.0932 E-score.
The result for AATTCCGC reads 0.124 E-score.
ATACTGAC came in with a binding signal of 0.0556 E-score.
ACCGCCTC had a binding signal of -0.315 E-score.
AGGTTTAT registered a binding signal of -0.0917 E-score.
In turn, ATTTTGGG showed a binding signal of 0.261 E-score.
The result for ACATTATC reads 0.134 E-score.
The result for ACTACGCT reads -0.115 E-score; that for ACGCAGAT, 0.293 E-score; that for AGTTCCTG, -0.0821 E-score.
The result for ATATATGC reads 0.192 E-score; that for ATACTAAA, 0.135 E-score.
With AGAGTCCC, the binding signal is -0.169 E-score.
The result for AGTGAATG reads -0.0843 E-score; that for ATTACTTG, 0.12 E-score; that for AAGGCTCT, -0.25 E-score.
Sequence ATCTCATC displayed a binding signal of 0.312 E-score.
The sequence ATACGGCA registered a binding signal of 0.113 E-score.
Consider AATGAAAG, for which the binding signal was -0.0895 E-score.
As to AGCCACCG, the binding signal was -0.198 E-score.
In the case of AAGCTTCA, the binding signal is -0.125 E-score.
The result for ATGAGAAG reads 0.0461 E-score; that for ATCAAACC, 0.0517 E-score.
The result for ACATCAGG reads 0.014 E-score.
The sequence CACTAGAA returned a binding signal of -0.00103 E-score.
AATACAAG returned a binding signal of 0.0661 E-score.
The result for ATGTGAGC reads -0.181 E-score.
Consider ACGCATCT, for which the binding signal was -0.144 E-score.
Turning to ATCTATCG, the binding signal is 0.164 E-score.
For the sequence CAGCAATG, the binding signal was -0.186 E-score.
Sequence ATCCTATG came in with a binding signal of 0.0957 E-score.
For AGGGCAAC, the binding signal is -0.0981 E-score.
The result for ATAAAGCA reads -0.00984 E-score.
On to AGGCACAG, for which the binding signal is -0.191 E-score.
Sequence CACCGAAA yielded a binding signal of 0.108 E-score.
In turn, ACAAGATC yielded a binding signal of 0.295 E-score.
The result for AGCTGTGA reads 0.00295 E-score; that for AATCATTC, 0.175 E-score.
The result for ATCGGAAT reads 0.289 E-score; that for ATGTTTCA, 0.148 E-score.
The result for ACCATAGG reads -0.0416 E-score; that for AAAACTAG, 0.0742 E-score; that for ATAGGATA, 0.247 E-score.
As to AGTATGGC, the binding signal was -0.204 E-score.
As for AGTGCTTA, the binding signal amounted to 0.0517 E-score.
The result for AGTGTTAG reads -0.145 E-score; that for AAAATAAG, 0.094 E-score; that for AGACGCGG, -0.196 E-score.
Regarding ATCCCCGG, the binding signal worked out at 0.256 E-score.
Turning to ATACGGGC, the binding signal is -0.0782 E-score.
The result for AAAAACTT reads 0.113 E-score.
The result for ATCCATAA reads 0.273 E-score; that for ATGTTTAC, 0.0125 E-score; that for ATTTCGGA, 0.309 E-score.
The result for ACTCCAAA reads 0.00614 E-score; that for AACCTCGC, -0.0755 E-score; that for ATTTCAAA, 0.231 E-score.
AAATGTTC yielded a binding signal of 0.00213 E-score.
The result for CACGTGAG reads -0.0425 E-score; that for ACTCTAGC, -0.17 E-score; that for AGAGCGAG, -0.0893 E-score.
The result for ACGCTTAC reads -0.053 E-score.
